Test results published in the supplement of paper PMC10369915.
The list shows a part of the results. Rule as the data show it: active = 3.2 or more and inactive = the rest. Most of these values are background signal.

Columns and labels:
Assay in all cases: enrichment score (SH2-bound / input frequency) (ratio); bacterial display of known human phosphotyrosine sites (pTyr-Var adds point mutants) read by sequencing; higher = stronger binding; tyrosines were phosphorylated by kinases first
Settings in all cases: peptide library: pTyr-Var
[1] = target: SHP2 C-SH2 domain E139D
[2] = target: SHP2 C-SH2 domain wild-type
[3] = target: SHP2 N-SH2 domain L43F
[4] = target: SHP2 N-SH2 domain T42A
[5] = target: SHP2 N-SH2 domain T52S
[6] = target: SHP2 N-SH2 domain wild-type

Measured: enrichment score
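Also: displayed peptides selected on beads carrying the immobilized SH2 domain, with library peptides lacking any tyrosine serving as negative controls.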

B1: ROR2_Y645_D644N_YF (peptide)
chain: VFAANYFKLLG
inactive: [1] 2.73 | [2] 2.29 | [3] 2.2 | [4] 2.07 | [5] 2.48 | [6] 2.07

B2: RPA2_Y14_YF (peptide)
chain: FGSSSYGGAGG
inactive: [1] 0.889 | [2] 0.608 | [3] 0.768 | [4] 0.706 | [5] 0.603 | [6] 0.596

B3: ROBO1_Y932_A933V (peptide)
chain: GLTSTYVGIRK
inactive: [1] 0.989 | [2] 2.69 | [3] 0.686 | [4] 0.594 | [5] 0.616 | [6] 0.829

B4: ROR2_Y645_YF (peptide)
chain: VFAADYFKLLG
inactive: [1] 1.48 | [2] 1.24 | [3] 1.76 | [4] 1.37 | [5] 1.2 | [6] 0.97

B5: ROS1_Y2227_K2228Q (peptide)
chain: FLNSIYQSRDE
inactive: [1] 1.31 | [2] 0.959 | [3] 0.838 | [4] 0.789 | [5] 0.995 | [6] 1.01

B6: ROR2_Y646_D644N (peptide)
chain: YAANYYKLLGN
inactive: [1] 0.775 | [2] 0.721 | [3] 0.615 | [4] 0.563 | [5] 0.644 | [6] 0.82

B7: RPA2_Y14 (peptide)
chain: YGSSSYGGAGG
inactive: [1] 0.618 | [2] 0.609 | [3] 0.672 | [4] 0.385 | [5] 0.535 | [6] 0.718

B8: ROR2_Y645 (peptide)
chain: VYAADYYKLLG
inactive: [1] 0.793 | [2] 0.758 | [3] 0.918 | [4] 0.707 | [5] 0.88 | [6] 0.857

B9: RPA2_Y14_G15R_YF (peptide)
chain: FGSSSYRGAGG
inactive: [1] 0.629 | [2] 0.602 | [3] 0.538 | [4] 0.526 | [5] 0.571 | [6] 0.618

B10: RPA2_Y14_Y14S_YF (peptide)
chain: FGSSSSGGAGG
inactive: [1] 0.472 | [2] 0.529 | [3] 0.74 | [4] 0.46 | [5] 0.554 | [6] 0.469

B11: RPAP3_Y567_D564Y_YF (peptide)
chain: SPFMLYQFLKQ
inactive: [1] 2.65 | [2] 2.56 | [3] 2.41 | [4] 2.7 | [5] 2.55 | [6] 2.33

B12: ROR2_Y646 (peptide)
chain: YAADYYKLLGN
inactive: [1] 0.862 | [2] 0.751 | [3] 0.767 | [4] 0.623 | [5] 0.483 | [6] 0.947

B13: ROR2_Y824_P828T (peptide)
chain: VPVNGYQPVTA
inactive: [1] 0.606 | [2] 0.601 | [3] 0.556 | [4] 0.534 | [5] 0.699 | [6] 0.746

B14: ROR2_Y624_N620K (peptide)
chain: RKVLVYDKLNV
inactive: [1] 0.533 | [2] 1.06 | [3] 0.654 | [4] 0.49 | [5] 0.786 | [6] 1.01

B15: ROS1_Y2323_K2328R (peptide)
chain: EKQVAYCPSGR
inactive: [1] 0.886 | [2] 0.837 | [3] 0.599 | [4] 0.61 | [5] 0.695 | [6] 0.554

B16: RPA2_Y9_YF (peptide)
chain: SGFESYGSSSF
inactive: [1] 0.506 | [2] 0.423 | [3] 0.528 | [4] 0.366 | [5] 0.395 | [6] 0.617

B17: RPAP3_Y569_YF (peptide)
chain: DMLFQYLKQIE
inactive: [1] 1.24 | [2] 1.22 | [3] 1.23 | [4] 1.17 | [5] 1.17 | [6] 1.21

B18: ROS1_Y144_T145P (peptide)
chain: LGSWTYPKTVS
inactive: [1] 0.819 | [2] 0.811 | [3] 0.792 | [4] 0.714 | [5] 0.944 | [6] 0.754

B19: ROR2_Y646_D644N_YF (peptide)
chain: FAANFYKLLGN
inactive: [1] 0.584 | [2] 0.532 | [3] 0.529 | [4] 0.511 | [5] 0.38 | [6] 0.72
